From patent publication US20250205349A1, “ANTI-HUMAN TROP2 ANTIBODY-CAMPTOTHECIN DRUG CONJUGATE AND MEDICAL USE THEREOF” (SYSTIMMUNE, INC., priority 2021, published 2025)
“Also recorded” adds a separate entry of the source.

T1: recombinant TROP2-His*6 antigen (Homo sapiens, UniProt P09758)
T1 construct: His*6
T1 sequence (P09758 27-323): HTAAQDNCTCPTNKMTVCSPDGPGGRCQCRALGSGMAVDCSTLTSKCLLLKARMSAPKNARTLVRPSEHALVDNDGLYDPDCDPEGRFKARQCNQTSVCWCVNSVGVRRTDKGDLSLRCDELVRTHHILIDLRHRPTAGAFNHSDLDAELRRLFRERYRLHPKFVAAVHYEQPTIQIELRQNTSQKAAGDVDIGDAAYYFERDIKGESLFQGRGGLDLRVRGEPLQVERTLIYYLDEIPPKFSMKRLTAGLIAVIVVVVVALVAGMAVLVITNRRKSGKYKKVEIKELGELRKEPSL

B1: ADC-2 (conjugate)
heavy: QVQLVQSGAEVKKPGASVKLSCKASGYTFTSFDINWVRQAPEQRLEWMGWIFPGDGNTKYSQKFQGRATITRDTSASTAYMELSSLRSEDTAVYYCVRGEALYYFDYWGQGTLVTVSS[human IgG1 constant region not shown]
light: DIQMTQSPSSLSASVGDRVTITCRASQDINKYLAWYQQKPGKVPKLLIYSTSTLQSGVPSRFSGSGSGTDFTLTISSLQPEDVATYYCLQYDDLFTFGQGTKLEIKRTVAAPSVFIFPPSDEQLKSGTASVVCLLNNFYPREAKVQWKVDNALQSGNSQESVTEQDSKDSTYSLSSTLTLSKADYEKHKVYACEVTHQGLSSPVTKSFNRGEC
B2: ADC-12 (conjugate)
heavy: B1 heavy
light: B1 light
B3: ADC-6 (conjugate)
heavy: B1 heavy
light: B1 light
B4: ADC-10 (conjugate)
heavy: B1 heavy
light: B1 light

Assays:
[1] = Percentage of monomer of ADCs by SEC-HPLC; assay type: physicochemical
Experimental: • Chromatography column: Biocore SEC-300 5 μm, 4.6×300 mm; • Manufacturer: NanoChrom, Product code: B213-050030-04630S; • Mobile phase: 50 mM PB+300 mM NaCl+200 mM Arg+5% IPA, pH=6.5;
• Chromatography column: ACQUITY UPLC Protein SEC 4.6×150 mm […] • Manufacturer: waters Product code: 186005225 • Mobile phase: 50 mM PB+300 mM NaCl+200 mM Arg+5% IPA, pH=6.5

[2] = molecular target: T1, recombinant TROP2-His*6 antigen; test: Double-antigen sandwich ELISA, relative affinity to TROP2; assay type: binding; details: OD450 nm, EC50 compared
Experimental: The recombinant TROP2-His*6 antigen was coated on the plate and then blocked with 1% bovine serum albumin; hu4D3 and the corresponding ADC and TINA1 and the corresponding ADC were diluted respectively, and then serially diluted 3 folds at a starting concentration of 2000 ng/mL respectively, for a total of 11 concentrations. After the sample was incubated on the coated elisa plate for a period of time, the secondary antibody labeled by goat anti-human Fc-HRP was added for incubation. Finally, TMB color development was performed and terminated by sulfuric acid solution, and the absorption value at 450 nm was detected on an elisa plate. The results are plotted on concentration at OD450 nm.

[3] = test system: human tumor cell line (BxPC-3); test: In vitro drug efficacy of antibodies and ADCs, MTS cell viability; assay type: cell-based; details: for IC50: BxPC-3, 5 days, MTS; for in vitro cytotoxicity (in words): BxPC-3 cells
Experimental: In the present invention, a human tumor cell line (BxPC-3) was used as an experimental model to evaluate the in vitro efficacy of ADCs. A certain number of tumor cells were inoculated into a 96-well plate, and gradient dilutions of the test antibody and the corresponding ADC were added to the cells, the cells were treated for 5 days, cell viability was detected by using MTS, and IC50 was calculated to evaluate the in vitro inhibitory effect of the test antibody and ADCs on the tumor cell line. The cells were treated for 5 days with the antibody drugs having initial concentration of 500 nM, diluted 7 folds, with a total of 8 concentration points. Finally, the cell survival was calculated as: survival rate=(experimental group-blank group)/(control group-blank group)×100%. Then, by using Graph Pad Prism, the curve was fitted and the half inhibitory concentration (IC50) was calculated.

BXPC3 = test: In vivo drug efficacy, BXPC3 single tumor model; details: BXPC3 tumor-bearing BALB/c nude mice, tail vein once a week, four times
Experimental: (§1) The tumors were measured twice a week to evaluate the inhibitory effects of test antibodies and ADCs on tumor cell lines.

A431+SW620 = test: In vivo drug efficacy, A431+SW620 heterogeneous tumor; design: species or system BALB/c nude mice; details: for in vivo efficacy (in words): BALB/c nude mice, tail vein once a week, four times
Experimental: as §1

[4] = Experimental: The mixture of an ADC and IgG-depleted plasma were formulated with the final concentration of ADC being 0.6 mg/mL. The plasma mixture was incubated in a water bath box in a 37° C. incubator. The incubation time was set to 0 days, 3 days, and 7 days. At the same time, the unincubated plasma control was set. The incubated sample was purified and extracted and then tested for the DAR to reflect the stability of the ADC in plasma.
SW620 = test: In vitro drug efficacy test of ADCs, Alamar Blue or MTS; assay type: cell-based, human; details: SW620, 5 days
Experimental: (§2) The in vitro efficacy of ADCs was evaluated by using experimental models of various human tumor cell lines (N87, SW620, Fadu, and HCC827) and SW620+A431 heterogeneous tumor.
(§3) A certain number of tumor cells were inoculated into a 96-well plate, and gradient dilutions of the test antibody and the corresponding ADC were added to the cells, the cells were treated for 5 days, cell viability was detected by using Alamar Blue or MTS, and IC50 was calculated to evaluate the inhibitory effect of the test ADCs on the tumor cell line. The cells were treated for 5 days with the antibody drugs having initial concentration of 500 nM, diluted at 7 times, with a total of 8 concentration points. Finally, the cell survival was calculated as: survival rate=(experimental group-blank group)/(control group-blank group)×100%. Then, by using Graph Pad Prism, the curve was fitted and the half inhibitory concentration (IC50) was calculated.

HCC827 = test: as above; assay type: cell-based, human; details: HCC827, 5 days
Experimental: as §2, §3

Fadu = test: as above; assay type: cell-based, human; details: 5 days
Experimental: as §2, §3

SW620 + A431 = test: as above; assay type: cell-based, human; details: SW620 + A431, 5 days
Experimental: as §2, §3

N87 = test: as above; assay type: cell-based, human; details: N87, 5 days
Experimental: as §2, §3

Molecule	Aggregate % [1]	Degradation % [1]	Monomer % [1]	affinity for antigen TROP2 compared with the corresponding antibody [2]	IC50 [3]	in vitro cytotoxicity (in words) [3]	in vivo efficacy (in words) (BXPC3)	bystander effect (A431+SW620)	in vivo efficacy (in words) (A431+SW620)	DAR Incubated in plasma for 0 days ([4]; ADC 0.6 mg/mL in IgG-depleted plasma, 37° C., 0 days)	DAR Incubated in plasma for 3 days ([4]; ADC 0.6 mg/mL in IgG-depleted plasma, 37° C., 3 days)	DAR Incubated in plasma for 7 days ([4]; ADC 0.6 mg/mL in IgG-depleted plasma, 37° C., 7 days)	DAR Unincubated ([4]; unincubated control)	IC50 (SW620)	IC50 (HCC827)	IC50 (Fadu)	IC50 (SW620 + A431)	IC50 (N87)
B1	1.276%	0%	98.724%	maintains the same affinity	84.9 nM	significantly greater than that of DS1062a	–	–	–	–	–	–	–	–	–	–	–	–
B2	–	–	–	maintains the same affinity	2.13 nM	significantly greater than that of DS1062a	superior to that of DS1062a and ADC-1; also recorded: superior to those of DS1062a	good “bystander effect”	superior to those of DS1062a	–	–	–	–	–	–	–	–	–
B3	1.236%	0%	98.764%	maintains the same affinity	3.31 nM	significantly greater than that of DS1062a	superior to that of DS1062a and ADC-1; also recorded: superior to those of DS1062a	good “bystander effect”	superior to those of DS1062a	7.30	7.25	7.26	7.38	17.1 nM	1.33 nM	3.16 nM	0.719 nM	4.05 nM
B4	2.530%	0%	97.470%	maintains the same affinity	35.9 nM	significantly greater than that of DS1062a	superior to that of DS1062a and ADC-1; also recorded: superior to those of DS1062a	–	–	–	–	–	–	–	–	–	–	–
